# In all, about 350,000 compounds went through this assay and about 31,000 (8.9%) were called active. Inconclusive means that the source gave no clear call. Such entries were picked first, then a sample of the others. The call rests on the fitted dose curve; in most records, active means well fitted inhibition curve with a large enough effect; inconclusive means small, poorly fitted or top-dose-only effect; inactive means no such curve, though single readings can be large or run the other way. Where the call is inconclusive, the potency comes from a doubtful curve fit. Where a structure was tested more than once in an assay, its records may differ in their call.
# Target: Histone-lysine N-methyltransferase EHMT2 (Homo sapiens) (UniProt Q96KQ7)
# Experiment: qHTS Assay for Inhibitors of Histone Lysine Methyltransferase G9a; further: nearly all actives have a fitted effect of over 75% in size
# Details: G9a H3K9 monomethylation, AlphaScreen, 2 h; activity, negative = inhibition: at 59 µM (top of the series) unless noted
# How it was run: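 Chemiluminescent proximity detection of H3K9 monomethylation, read after 10 min bead incubation in the dark. Reaction: 20 nM G9a, 500 nM biotin-H3K9 peptide, 20 uM SAM cofactor, 2 h, room temperature, following 15 min enzyme-compound preincubation.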
# On the % scale 0 is the no-effect control and ±100 the full control effect; potency means the concentration at half of the fitted maximal effect; tags describe the fitted curve by direction and shape.
# Chain of UniProt Q96KQ7 (Q96KQ7 whole entry, looked up): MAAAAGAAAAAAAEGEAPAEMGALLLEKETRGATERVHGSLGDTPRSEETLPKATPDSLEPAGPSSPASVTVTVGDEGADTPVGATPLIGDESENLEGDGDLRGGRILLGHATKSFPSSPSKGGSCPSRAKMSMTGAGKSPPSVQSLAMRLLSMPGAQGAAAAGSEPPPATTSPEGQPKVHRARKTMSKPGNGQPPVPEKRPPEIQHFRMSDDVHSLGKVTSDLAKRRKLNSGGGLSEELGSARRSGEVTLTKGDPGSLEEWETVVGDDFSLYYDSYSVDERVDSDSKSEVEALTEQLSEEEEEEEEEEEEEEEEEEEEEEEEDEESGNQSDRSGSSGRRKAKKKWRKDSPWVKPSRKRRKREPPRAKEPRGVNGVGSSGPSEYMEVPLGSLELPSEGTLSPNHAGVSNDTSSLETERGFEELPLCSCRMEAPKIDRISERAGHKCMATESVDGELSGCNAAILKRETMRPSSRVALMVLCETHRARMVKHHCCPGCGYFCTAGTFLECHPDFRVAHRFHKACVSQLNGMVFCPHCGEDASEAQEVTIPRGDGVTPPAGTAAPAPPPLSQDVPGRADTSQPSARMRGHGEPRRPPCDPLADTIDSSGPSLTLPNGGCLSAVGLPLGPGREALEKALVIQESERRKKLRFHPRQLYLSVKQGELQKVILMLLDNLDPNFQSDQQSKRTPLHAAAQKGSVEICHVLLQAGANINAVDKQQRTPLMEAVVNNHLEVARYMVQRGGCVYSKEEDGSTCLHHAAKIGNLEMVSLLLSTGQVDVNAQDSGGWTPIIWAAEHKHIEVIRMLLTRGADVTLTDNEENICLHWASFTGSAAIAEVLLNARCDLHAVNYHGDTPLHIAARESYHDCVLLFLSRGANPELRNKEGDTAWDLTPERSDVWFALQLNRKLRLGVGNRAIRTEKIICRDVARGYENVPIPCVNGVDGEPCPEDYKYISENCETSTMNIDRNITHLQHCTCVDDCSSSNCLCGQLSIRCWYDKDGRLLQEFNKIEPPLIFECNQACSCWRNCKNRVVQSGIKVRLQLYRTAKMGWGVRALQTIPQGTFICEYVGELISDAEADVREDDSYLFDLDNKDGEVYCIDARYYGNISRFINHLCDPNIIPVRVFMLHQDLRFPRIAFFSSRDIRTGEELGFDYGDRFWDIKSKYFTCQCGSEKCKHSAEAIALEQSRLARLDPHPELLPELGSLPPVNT
SMILES,Potency,"activity, negative = inhibition"
CCc1ccccc1Nc1nc2ccccc2c2nncn12,inactive,
Cc1ccc(-n2nc(CO)c(C(=O)NCc3cccnc3)n2)cc1,inactive,
O=C(Nc1ccc(S(=O)(=O)N2CCCCC2)cc1)c1ccc(=O)[nH]c1,active: 14.1 µM,
O=C(O)c1cccc(N2C(=O)CSC2=S)c1,"inconclusive: 79.4 µM [inhibitor, single point]",
COCCC(=O)N1CCC(Oc2ccc(C(=O)N3C[C@H]4CC[C@H]3C4)cc2)CC1,"inconclusive: 79.4 µM [inhibitor, single point]",
CC(=O)Nc1ccc(NC(=O)CC(C)n2ccnc2)cc1 (centres undefined),"inconclusive: 0.708 µM [inhibitor, partial curve, poor fit]",
CC(C)(C)OC(=O)N/N=C\c1cccnc1,active: 1.26 µM,
O=C(CN(C(=O)Cn1nnc(-c2cccs2)n1)c1cnc2ccccc2c1)NCC1CCCO1 (centres undefined),"inconclusive: 50.1 µM [inhibitor, partial curve, poor fit]",
COc1ccc2[nH]cc(CCO)c2c1,inactive,
COc1ccc(C(=O)N2CCC[C@@]3(CCN(C(=O)Nc4ccccc4)C3)C2)cc1,,inactive: 5.1% [at 12.7 µM]
CCOC(=O)c1ccc(N/C=C/C(=O)C(C)(C)C)cc1,inactive,
CC/C=C\C/C=C\C/C=C\C/C=C\C/C=C\CCCCCC(=O)O,"inconclusive: 3.98 µM [inhibitor, partial curve]",
O=C(COC(=O)CNC(=O)c1ccco1)Nc1ncc(Cl)cc1Cl,"inconclusive: 2 µM [inhibitor, partial curve, poor fit]",
O=C(Nc1ncc(Cc2ccc(C(F)(F)F)cc2)s1)c1ccc(-c2cccc([N+](=O)[O-])c2)o1,"inconclusive: 31.6 µM [inhibitor, single point]",
Cc1ccc(C(=O)N2CCN(c3ccc(NC(=O)c4ccc(Br)o4)cc3)CC2)cc1,,inconclusive: -75% [inhibitor]
Cc1ccc(C(=O)C2=C(O)C(=O)N(CCCN3CCOCC3)C23C(=O)N(C)c2ccccc23)o1 (centres undefined),"inconclusive: 35.5 µM [inhibitor, partial curve, poor fit]",
CC(C)c1nnc(NC(=O)COC(=O)/C=C/c2ccc([N+](=O)[O-])cc2)s1,inactive,
OC(CN1CCN(Cc2ccccc2)CC1)c1ccc(F)cc1 (centres undefined),"inconclusive: 89.1 µM [inhibitor, single point]",
CSc1nnc(-c2sc(-c3ccccc3)nc2C)n1C,inactive,
CCOC(=O)C1CCCN(S(=O)(=O)CCNC(=O)c2ccc3c(c2)OCO3)C1 (centres undefined),inactive,
COc1ccccc1NC(=O)CSc1ncc2c(n1)-c1cc(Cl)ccc1N(Cc1ccccc1)S2(=O)=O,"inconclusive: 14.1 µM [inhibitor, partial curve, poor fit]",
N#CC12CCCCC1CC1CCCCC1(C#N)N2N (centres undefined),"inconclusive: 0.891 µM [inhibitor, full curve, poor fit]",
COc1ccccc1N1CCN(c2nnc(-c3ccc(F)cc3)c3ccccc23)CC1,inactive,

SMILES,Potency,"activity, negative = inhibition"
CC(=O)Nc1ccc(C23CC4CC(CC(C4)C2)C3)cc1,"inconclusive: 39.8 µM [inhibitor, partial curve, poor fit]",
Cc1ccc(OCC(=O)Nc2ccc3nc(SCC(=O)N4CCOCC4)sc3c2)cc1,inactive,
CCOc1ccccc1NC(=S)NCC1CCCO1 (centres undefined),"inconclusive: 20 µM [inhibitor, single point]",
CC#CC(=O)NC1CCCN(C2Cc3ccccc3C2)C1 (centres undefined),"inconclusive: 22.4 µM [inhibitor, partial curve, poor fit]",
COc1ccc(OC)c2[nH]c(=O)c(CCNC(=O)c3cc4ccccc4o3)cc12,"inconclusive: 35.5 µM [inhibitor, full curve, poor fit]",
Cc1[nH]n(-c2ccc(Br)cc2)c(=O)c1/C=N/NC(=O)c1ccccc1,"inconclusive: 56.2 µM [inhibitor, single point]",
COc1ccc2c(c1)Sc1ccccc1N2CCN(C)C,"inconclusive: 3.16 µM [inhibitor, single point]",
Cc1ccccc1NC(=O)C1c2ccccc2Oc2ccccc21,"inconclusive: 39.8 µM [inhibitor, single point]",
NC(=O)c1nc(Nc2ccccc2)sc1NC(=O)c1ccccc1Br,"inconclusive: 39.8 µM [inhibitor, single point]",
O=C(C1CCN(S(=O)(=O)Cc2ccccc2)CC1)N1CCN(c2ccccc2)CC1,inactive,
CCCSc1nnc2nc3c(nn12)c1ccccc1n3C,inactive,
O=C1/C(=C/c2ccncc2)SC(=S)N1C1CCS(=O)(=O)C1 (centres undefined),"inconclusive: 20 µM [inhibitor, single point]",
COc1ccc(OC)c(-c2csc(NC(=O)C3c4ccccc4Oc4ccccc43)n2)c1,"inconclusive: 70.8 µM [inhibitor, single point]",
CCOC(=O)N1CCC(=NNS(=O)(=O)c2cccc([N+](=O)[O-])c2)CC1,"inconclusive: 1.78 µM [inhibitor, full curve, poor fit]",
CCN(CC)C(=O)c1sc2nc(Cc3ccccc3)[nH]c(=O)c2c1C,"inconclusive: 50.1 µM [inhibitor, partial curve, poor fit]",
CCN1CC(O)=C(c2nc3ccccc3s2)C1=N,"inconclusive: 3.16 µM [inhibitor, single point]",
Cc1ccc(S(=O)(=O)c2nc(S(C)(=O)=O)sc2N(C)Cc2ccccc2)cc1,inactive,
O=S(=O)(NCc1csc(-c2ccccc2)n1)c1ccc(Cl)s1,"inconclusive: 39.8 µM [inhibitor, single point]",
CC(C)(C)c1ccc(CN2CCN([C@H](c3ccccc3)c3ccc(Cl)cc3)CC2)cc1,"inconclusive: 8.91 µM [inhibitor, partial curve, poor fit]",
O=C1Nc2ccc(Cl)cc2C(C#CC2CC2)(C(F)(F)F)O1 (centres undefined),inactive,
COc1ccc(CCNC(=O)CCCCCNc2nc(=S)[nH]c3ccccc23)cc1OC,"inconclusive: 15.8 µM [inhibitor, single point]",
O=C(Nc1ccc(N2CCOCC2)cc1N1CCOCC1)c1cccs1,"inconclusive: 39.8 µM [inhibitor, single point]",
CCOC(=O)COc1ccccc1C1C(C(=O)OC)=C(C)NC2=C1C(=O)c1ccccc12 (centres undefined),active: 12.6 µM,

SMILES,Potency,"activity, negative = inhibition"
O=C(COc1ccccc1Cl)Nc1nnc(S(=O)(=O)N2CCCCCC2)s1,active: 56.2 µM,
COc1ccc(NCc2cc3cc4c(cc3n(CC(=O)Nc3cc(C)cc(C)c3)c2=O)OCO4)cc1,"inconclusive: 3.16 µM [inhibitor, partial curve, poor fit]",
N#Cc1ccc(S(=O)(=O)N2CCN(CC(=O)Nc3ccccc3C(=O)NC3CC3)CC2)cc1,"inconclusive: 15.8 µM [inhibitor, single point]",
O=C(CSc1nnc(CNC(=O)c2ccco2)o1)Nc1ccccc1F,active: 25.1 µM,
N#Cc1c(N)n(-c2cccc(Cl)c2)c2nc3ccccc3nc12,inactive,
COC(=O)c1cccc(N(C(=O)c2cnccn2)C(C(=O)NCc2ccccc2)c2ccco2)c1 (centres undefined),"inconclusive: 89.1 µM [inhibitor, single point]",
COc1ccc(Nc2nc(N/N=C/c3ccc(N(C)C)cc3)nc(C)c2[N+](=O)[O-])cc1,active: 5.01 µM,
CS(=O)(=O)c1ccc(C(=O)OCc2nnc(-c3ccc(Cl)cc3)o2)cc1[N+](=O)[O-],"inconclusive: 25.1 µM [inhibitor, partial curve, poor fit]",
CCc1ccc(CNC(=O)C2Cc3cc(S(=O)(=O)N4CCCCCC4)ccc3N2C(C)=O)cc1 (centres undefined),inactive,
COc1ccccc1Nc1nnc(SCC(=O)c2cc(C)n(CC3CCCO3)c2C)s1 (centres undefined),,inconclusive: -60.5% [inhibitor]
CCOc1ccc(CNc2nc3nc(C)c(Cc4ccccc4)c(=O)n3[nH]2)cc1,"inconclusive: 0.316 µM [inhibitor, full curve, poor fit]",
CCOc1ccc(CNC(=O)CCCn2nc(CC)n3c(cc4occc43)c2=O)cc1,"inconclusive: 79.4 µM [inhibitor, single point]",
COc1ccc(-n2c(=O)c(CCc3ccccc3)nc3cnc(N(C)C)nc32)cc1,,inactive: 1.53% [at 12.7 µM]
O=C(C[n+]1cccc(NC(=O)c2ccccc2)c1)c1cccc([N+](=O)[O-])c1,"inconclusive: 35.5 µM [inhibitor, partial curve, poor fit]",
Cc1cc(N2C(=O)CC(N3CCN(c4ccc(C(=O)c5cccs5)cc4)CC3)C2=O)no1 (centres undefined),"inconclusive: 28.2 µM [inhibitor, single point]",
Fc1ccc(N/N=C2/CC(c3ccccc3)Oc3ccccc32)c(F)c1 (centres undefined),active: 10 µM,
CCCn1nnnc1NC(=O)c1cc(Cl)ccc1Cl,active: 8.91 µM,
CC(=O)c1ccc(NC(=S)NCCc2ccccn2)cc1,"inconclusive: 31.6 µM [inhibitor, single point]",
O=C(NCc1ccco1)C12CC3CC(C1)CC(C(=O)NCc1ccco1)(C3)C2,"inconclusive: 89.1 µM [inhibitor, single point]",
CN1CCN(S(=O)(=O)c2cccc(C(=O)Nc3sccc3C#N)c2)CC1,"inconclusive: 3.16 µM [inhibitor, single point]",
Cc1cccc(NC(=O)C2CCC(CNS(=O)(=O)c3ccc(Br)s3)CC2)c1 (centres undefined),inactive,
O=C(CSc1ncccc1-c1nc2ccccc2[nH]1)N1CCN(c2ccccc2F)CC1,inactive,
COc1ccc(-c2cnc3nc[nH]c(=O)c3n2)cc1,"inconclusive: 39.8 µM [inhibitor, single point]",

# From PubChem BioAssay AID504332 (National Center for Advancing Translational Sciences (NCATS), 2011)
